For 31 compounds, activity change, negative = inhibition results are on record in PubChem BioAssay AID1745853 (National Center for Advancing Translational Sciences (NCATS), 2022).

Test in all cases: Primary Screen for Target Class Profiling of Small Molecule Inhibitors of Methyltransferases
For assay [1], the target named is Glycine N-methyltransferase (Homo sapiens) (UniProt Q14749). The note with it: purified enzyme, MTase-Glo SAH luminescence; measured here: GNMT inhibition; at 40 µM; stronger effect = lower value. The method, boiled down: (§1)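 Each enzyme was reacted with SAM and its substrate, with compounds tested once at 40 uM; SAH formed was read by MTase-Glo luminescence.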
Assay [2] has as its target Guanidinoacetate N-methyltransferase (Homo sapiens) (UniProt Q14353). Particulars: purified enzyme, MTase-Glo SAH luminescence; measured here: GAMT inhibition; at 40 µM; stronger effect = lower value. The method, boiled down:
as §1

Assay [3] has as its target Histamine N-methyltransferase (Homo sapiens) (UniProt P50135). The note with it: purified enzyme, MTase-Glo SAH luminescence; measured here: HNMT inhibition; at 40 µM; stronger effect = lower value. The gist of the method:
as §1

For assay [4], the target named is Nicotinamide N-methyltransferase (Homo sapiens) (UniProt P40261). Particulars: purified enzyme, MTase-Glo SAH luminescence; measured here: NNMT inhibition; at 40 µM; stronger effect = lower value. The gist of the method:
as §1

The target in assay [5] is Phenylethanolamine N-methyltransferase (Homo sapiens) (UniProt P11086). The note with it: purified enzyme, MTase-Glo SAH luminescence; measured here: PNMT inhibition; at 40 µM; stronger effect = lower value. The method, boiled down: as §1

Molecules are shown by their SMILES. Where “and” joins values, the source holds several entries; their conditions need not be identical. Equal entries are not always repeated. The list shows a part of the results. Shown are side measurements of this screen, not its main read-out; they come without a call.
% is scaled to controls: 0 for no effect and ±100 for the full control effect.

On to `COC(=O)c1cc2n(n1)CC(C)(C(=O)NC1CCCCC1)N(c1ccc(C)c(C)c1)C2=O` (stereo not given), for which the activity change, negative = inhibition in assay [1] was determined as 2.68%; in assay [2], 0.524%; in assay [3], 8.97%; in assay [4], 6.82%; in assay [5] it was 3.91%.
On the same counts, the results for `Cc1cn2nc(C(=O)N3CCC(C(=O)NCc4ccccn4)CC3)cc2c(=O)[nH]1` are -2.48%, -6.07%, -1.23%, -4.56% and -14.2%.
The matching figures for `O=C(Nc1ccccc1Cl)N1Cc2c(sc3c2CCCC3)-n2cccc2C1c1cccc(F)c1` (stereo not given): -4.2%, 1.08%, 2.65%, -3.89% and 0.786%.
The matching figures for `COc1ccc(CN2Cc3[nH]cnc3C[C@H]2c2nc(Cc3ccccc3)no2)cc1`: -10%, -4.12%, -9.69%, -19.1% and -11.1%.
Consider `Cc1ccc(NC(=O)N2Cc3c(sc4c3CCCC4)-n3cccc3C2c2ccc(F)cc2)cc1` (stereo not given), for which the activity change, negative = inhibition in assay [1] is -1.68%; in assay [2] it was 0%; in assay [3], -1.43%; in assay [4] it was -11%; in assay [5], 0.548%.
On the same counts, the results for `Cc1cccc(N2CCN(C(=O)Cn3ccc4cc(S(=O)(=O)N5CCCCC5)ccc43)CC2C)c1` (stereo not given) are -7.1%, -1%, -8.42%, -12.9% and -5.29%.
Regarding `O=C(c1cccs1)N1CCCCCC1CN1CCCC1` (stereo not given), the activity change, negative = inhibition in assay [1] was -8.52%; in assay [2], -7.37%; in assay [3] it was -17.5%; in assay [4] it was -10.9%; in assay [5], -13.5%.
Consider `COC(=O)c1cc2n(n1)CC(C)(C(=O)NC1CCCCC1)N(Cc1ccc(OC(C)C)cc1)C2=O` (stereo not given), for which the activity change, negative = inhibition in assay [1] was 8.09%; in assay [2], 1.61%; in assay [3], 11.9%; in assay [4] it was 9.18%; in assay [5] it was 9.86%.
On the same counts, the results for `O=C(NCCN1CCC(n2c(=O)[nH]c3ccccc32)CC1)c1ccc2ccccc2c1` are -29.9%, -1.65%, -0.76%, -26.9% and -16.6%.
On the same counts, the results for `COc1ccc(CCNC(=O)CCCc2nnc3n4nc(-c5ccccc5)nc4c4ccccc4n23)cc1OC` are -10.6%, 0%, 5.27%, 5.21% and -2.58%.
The matching figures for `Cc1cc(CN2C[C@@H](CO)[C@H](C(=O)N(C)C)C2)n(C)n1`: -4.87%, -10.3%, -3.63%, -6.62% and 1.85%.
For `Cc1ccsc1C(=O)N1CCCC(CN2CCCC2)CC1` (stereo not given), the activity change, negative = inhibition is -12.4% in assay [1]; -10.7% in assay [2]; -28.8% in assay [3]; -11.4% in assay [4]; 0.177% in assay [5].
For the compound `O=c1c(O)c(-c2ccc(O)c(O)c2)oc2cc(O)cc(O)c12`, the activity change, negative = inhibition in assay [1] is -55.6% and 31.8%; in assay [2], -0.203% and -1.78%; in assay [3], -13.3% and -6.99%; in assay [4], -6.06% and 4.25%; in assay [5], -6.63% and -7.69%.
Consider `CCOC(=O)C1=C(O)C(=O)N(Cc2ccccc2)C1`, for which the activity change, negative = inhibition is -12.4% in assay [1]; 0.982% in assay [2]; -2.16% in assay [3]; -2.91% in assay [4]; 1.97% in assay [5].
The matching figures for `COc1ccc(CNC(=O)c2cc3n(n2)CC(C)(C(=O)NCc2ccc(F)cc2)N(C)C3=O)cc1` (stereo not given): 3.58%, 4.54%, -1.15%, 4.35% and 0.971%.
On the same counts, the results for `CO[C@H]1O[C@@H]2O[C@]3(C)CC[C@@H]4[C@@H](C)CC[C@H]([C@H]1C)[C@]24OO3` are -3.52%, 5.98%, -0.847%, -3.46% and 7.42%.
On the same counts, the results for `O=C(c1cncc(Br)c1)N1CCC(N2CCCC2)CC1` are 6.95%, 7.52%, 6.71%, -5.5% and 6.35%.
As to `Cc1ccc(N2C(=O)c3ccc(-c4ccco4)n3CC2(C)C(=O)NC2CCCC2)cc1C` (stereo not given), the activity change, negative = inhibition is -6.07% in assay [1]; 1.17% in assay [2]; -2.68% in assay [3]; -0.141% in assay [4]; -6.25% in assay [5].
The matching figures for `CCCN1C(=O)c2cc(C(=O)NCc3ccc(CC)cc3)nn2CC1(C)C(=O)NC1CCCC1` (stereo not given): -1.01%, 0.355%, -0.424%, -2.6% and -4.38%.
On the same counts, the results for `CCN1C(=O)c2cc(C(=O)NCCCN3CCN(C)CC3)nn2CC1(C)C(=O)NC1CCCC1` (stereo not given) are 4.66%, 3.56%, -3.84%, 4.67% and 3.52%.
The matching figures for `N[C@H](C(=O)O)[C@H]1C[C@@H]1C(=O)O`: -6.21%, 4.71%, 1.8%, -4.35% and 5.63%.
With `O=C(c1ccccc1)N1CCC2(CC1)C(=O)NCN2Cc1ccc(Cl)cc1`, the activity change, negative = inhibition was -2.16% in assay [1]; 1.12% in assay [2]; 1.02% in assay [3]; -0.33% in assay [4]; 2.21% in assay [5].
On the same counts, the results for `Cc1ccc(NC(=O)Cn2c(=O)oc3cc(S(=O)(=O)NC4CCCC4)ccc32)cc1` are 3.55%, 0%, 8.67%, 6.92% and -0.741%.
On the same counts, the results for `COc1cccc(CNC(=O)CCc2nnc3n(CCc4ccccc4)c(=O)c4ccccc4n23)c1` are -1.36%, 0%, 8.25%, 1.38% and 0.701%.
On the same counts, the results for `COc1cc(OC)cc(N2C(=O)c3cc(-c4cccs4)nn3CC2(C)C(=O)NC2CCCCC2)c1` (stereo not given) are -3.65%, 4.53%, 2.16%, 0% and -2.17%.
In the case of `Cc1ccc(CCNC(=O)Cn2ccc3cc(S(=O)(=O)N4CCCC4)ccc32)cc1`, the activity change, negative = inhibition in assay [1] was -5.21%; in assay [2], 0.133%; in assay [3], -7.39%; in assay [4] it was -7.52%; in assay [5] it was -4.76%.
The matching figures for `Cc1nn2c(c1-c1cccnc1N1CCOCC1)N(C(=O)c1cc3ccccc3n1C)CCC2`: -2.71%, -5.26%, 0.237%, -12.5% and -6.32%.
Regarding `O=C(O)c1cc(I)ccc1NC(=O)[C@H](Cc1ccccc1)NCc1ccccc1`, the activity change, negative = inhibition in assay [1] is -13.5%; in assay [2], 1.75%; in assay [3], 10.7%; in assay [4], -16.1%; in assay [5], 3.88%.
Consider `CC(C)CNC(=O)c1ccc2c(=O)n(C(C)C)c3nn(CC(=O)Nc4ccccc4Cl)c(=O)n3c2c1`, for which the activity change, negative = inhibition worked out at 4.05% in assay [1]; 0% in assay [2]; 11% in assay [3]; 7.33% in assay [4]; 7.41% in assay [5].
On to `COCC(=O)NC[C@H]1O[C@@H](CO)[C@@H](O)[C@H]1N1CCc2ccccc2C1`, for which the activity change, negative = inhibition in assay [1] was 0.583%; in assay [2], -6.84%; in assay [3], 0.723%; in assay [4], 6.1%; in assay [5], -7.37%.
The matching figures for `CC(C)(C)CC(=O)N1CCN2C(=O)c3ccc(Cl)cc3NC(=O)[C@H]2C1`: -0.048%, 0.025%, 0.285%, -3.06% and -12.3%.
